According to patent US9688764B2, “Methods of treating breast cancer by administering anti-human prolactin receptor (PRLR) antibodies” (REGENERON PHARMACEUTICALS, INC., priority 2013, dated 2017):

T1: PRLR-expressing cells (T47D) (Homo sapiens, UniProt P16471)
T1 construct: a native PRLR expressing cell line (T47D); endogenous in cells; host or cells: T47D
T1 sequence (P16471 25-622): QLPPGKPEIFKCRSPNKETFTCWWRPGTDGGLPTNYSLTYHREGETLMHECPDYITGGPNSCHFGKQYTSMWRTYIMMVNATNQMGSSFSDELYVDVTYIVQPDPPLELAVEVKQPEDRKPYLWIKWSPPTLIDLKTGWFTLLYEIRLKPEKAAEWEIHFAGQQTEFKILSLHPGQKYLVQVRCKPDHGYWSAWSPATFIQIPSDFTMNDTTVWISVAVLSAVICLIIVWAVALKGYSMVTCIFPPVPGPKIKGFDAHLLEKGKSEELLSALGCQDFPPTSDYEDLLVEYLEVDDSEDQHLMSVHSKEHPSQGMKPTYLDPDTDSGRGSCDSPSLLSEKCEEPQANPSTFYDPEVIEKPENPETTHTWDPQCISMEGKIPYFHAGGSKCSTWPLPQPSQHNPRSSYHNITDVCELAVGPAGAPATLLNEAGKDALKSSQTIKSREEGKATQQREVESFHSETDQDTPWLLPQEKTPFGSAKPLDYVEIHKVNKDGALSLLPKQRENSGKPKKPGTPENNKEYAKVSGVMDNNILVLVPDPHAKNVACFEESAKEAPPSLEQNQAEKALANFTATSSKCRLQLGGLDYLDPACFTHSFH

T2: T47D (native PRLR expressing cell line) (Homo sapiens, UniProt P16471)
T2 construct: a native PRLR expressing cell line (T47D); endogenous in cells; host or cells: T47D
T2 sequence (P16471 25-622): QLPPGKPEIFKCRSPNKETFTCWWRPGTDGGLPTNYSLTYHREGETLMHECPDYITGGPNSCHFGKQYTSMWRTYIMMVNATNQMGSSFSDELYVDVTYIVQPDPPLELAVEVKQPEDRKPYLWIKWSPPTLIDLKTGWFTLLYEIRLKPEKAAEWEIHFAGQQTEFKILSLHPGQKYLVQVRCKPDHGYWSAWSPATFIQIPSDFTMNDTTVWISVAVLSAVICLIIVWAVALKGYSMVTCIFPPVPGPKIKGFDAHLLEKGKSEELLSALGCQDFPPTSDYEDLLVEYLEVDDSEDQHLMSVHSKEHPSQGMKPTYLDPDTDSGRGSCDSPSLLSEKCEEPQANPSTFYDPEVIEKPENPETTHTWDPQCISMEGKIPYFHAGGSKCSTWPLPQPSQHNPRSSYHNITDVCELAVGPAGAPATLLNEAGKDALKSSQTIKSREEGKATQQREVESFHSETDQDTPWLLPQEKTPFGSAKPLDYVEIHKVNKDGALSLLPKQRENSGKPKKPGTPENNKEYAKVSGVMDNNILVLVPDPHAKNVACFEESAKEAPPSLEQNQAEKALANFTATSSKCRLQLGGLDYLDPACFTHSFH

T3: HEK293/hPRLR (Homo sapiens, UniProt P16471)
T3 construct: HA; expressed in transfected cells; host or cells: HEK293
T3 sequence (P16471 25-622): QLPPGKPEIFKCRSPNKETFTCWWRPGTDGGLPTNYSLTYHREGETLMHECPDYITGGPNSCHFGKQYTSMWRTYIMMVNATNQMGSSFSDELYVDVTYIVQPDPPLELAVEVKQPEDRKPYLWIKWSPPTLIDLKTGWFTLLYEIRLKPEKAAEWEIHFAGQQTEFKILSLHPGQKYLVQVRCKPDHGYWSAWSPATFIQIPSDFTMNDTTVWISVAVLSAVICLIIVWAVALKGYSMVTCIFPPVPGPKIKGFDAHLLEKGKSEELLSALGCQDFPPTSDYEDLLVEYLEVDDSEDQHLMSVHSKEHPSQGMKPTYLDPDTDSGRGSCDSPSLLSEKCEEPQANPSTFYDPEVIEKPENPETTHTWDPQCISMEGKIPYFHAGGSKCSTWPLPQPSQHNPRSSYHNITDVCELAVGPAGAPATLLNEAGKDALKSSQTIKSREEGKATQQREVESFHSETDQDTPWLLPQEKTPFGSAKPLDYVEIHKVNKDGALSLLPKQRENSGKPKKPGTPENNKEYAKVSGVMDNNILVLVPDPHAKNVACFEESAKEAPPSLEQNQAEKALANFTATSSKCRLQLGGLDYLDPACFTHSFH

T4: HEK293/mPRLR (Mus musculus, UniProt Q08501)
T4 construct: HA; expressed in transfected cells; host or cells: HEK293
T4 sequence (Q08501 20-608): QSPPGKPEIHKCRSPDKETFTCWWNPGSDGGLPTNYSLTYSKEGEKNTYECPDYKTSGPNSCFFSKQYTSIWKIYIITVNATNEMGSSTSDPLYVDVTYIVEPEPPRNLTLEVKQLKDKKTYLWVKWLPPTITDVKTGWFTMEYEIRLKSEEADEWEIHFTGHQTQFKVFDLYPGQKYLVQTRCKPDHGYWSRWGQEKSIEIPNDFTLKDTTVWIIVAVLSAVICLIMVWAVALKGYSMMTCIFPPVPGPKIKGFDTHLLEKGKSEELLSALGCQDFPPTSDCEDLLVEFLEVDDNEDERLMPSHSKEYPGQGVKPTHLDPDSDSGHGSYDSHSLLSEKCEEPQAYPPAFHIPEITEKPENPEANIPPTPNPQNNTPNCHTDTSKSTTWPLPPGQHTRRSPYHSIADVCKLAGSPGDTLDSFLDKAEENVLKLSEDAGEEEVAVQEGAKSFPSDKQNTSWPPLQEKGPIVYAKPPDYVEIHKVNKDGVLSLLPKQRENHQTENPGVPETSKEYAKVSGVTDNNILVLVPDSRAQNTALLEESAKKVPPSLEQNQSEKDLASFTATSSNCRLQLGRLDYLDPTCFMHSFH


What was measured:
[1] = biological target: mfPRLR.mmh (monomeric macaca fascicularis PRLR); experiment: Surface plasmon resonance (Biacore T200), mAb-capture format; type: binding; conditions: antibody-capture format, analyte mfPRLR.mmh
Experimental: (§1) Antibodies, expressed as human IgG1 Fc “[…]” designations), were captured onto an anti-human Fc sensor surface (mAb-capture format), and soluble monomeric (hPRLR.mmh; SEQ ID NO:401, or macaca fascicularis (mf) PRLR.mmh; SEQ ID NO:403) or dimeric (hPRLR.mFc; SEQ ID NO:402) PRLR protein was injected over the sensor surface. Measurements were conducted on a T200 Biacore instrument. Kinetic association (ka) and dissociation (kd) rate constants were determined by processing and fitting the data to a 1:1 binding model using Scrubber 2.0 curve fitting software.

[2] = biological target: T5, hPRLR.mFc (soluble dimeric human PRLR) (Homo sapiens, UniProt P16471); experiment: as above; type: binding; conditions: antibody-capture format, analyte hPRLR.mFc
T5 construct: dimeric (hPRLR.mFc)
Experimental: as §1

[3] = biological target: T6, hPRLR.mmh (soluble monomeric human PRLR) (Homo sapiens, UniProt P16471); experiment: as above; type: binding; conditions: antibody-capture format, analyte hPRLR.mmh
T6 construct: soluble monomeric (hPRLR.mmh); mmh (myc-myc-hexahistidine)
Experimental: as §1

[4] = biological target: T1, PRLR-expressing cells (T47D); experiment: Antibody binding and internalization by PRLR-expressing cells (imaging); type: cell-based; conditions: [mAb] (0.67 nM); for % Internalization relative to Control I: alexa488 intensity in intracellular vesicles, 1 h at 37° C.; for % Total Binding relative to Control I: whole cell alexa488 intensity at 37° C.
Experimental: In this Example, the internalization of anti-PRLR antibodies by PRLR-expressing cells (T47D) was assessed. Briefly, 20,000 T47D cells were seeded in collagen coated 96 well plates. […] Cells were then incubated with alexa488 conjugated anti-hFc Fab secondary antibodies for 30 minutes on ice followed by two additional PBS washes. Antibodies were allowed to internalize for 1 h at 37° C. in internalization buffer (PBS+2% FBS) or remained at 4° C. Cells were fixed in 4% formaldehyde, nuclei were stained with DRAQ5 (Cell signaling), and images were acquired on the ImageXpress micro XL (Molecular Devices). Whole cell alexa488 intensity at 37° C. (Binding) and the alexa488 intensity in the intracellular vesicles at 37° C. (Internalization) were determined via Columbus image analysis software (PerkinElmer).

[5] = test system: HEK293/hPRLR/STAT5-Luc cells (human PRLR); experiment: STAT5-Luc luciferase reporter assay, blocking of PRL-mediated receptor activation; type: cell-based; conditions: for Percent Blocking at 100 nM Antibody: 5 nM PRL
Excerpt: The ability of anti-PRLR antibodies to block prolactin (PRL)-mediated receptor activation was examined in a luciferase-based reporter assay. The endocrine hormone PRL binds to the extracellular domain of its cognate receptor PRLR, triggering rapid homodimerization and activating several downstream signaling cascades.
In this example, an engineered cell line was used to determine the ability of anti-PRLR antibodies to block ligand activation of the PRLR receptor. Briefly, HEK293/hPRLR/STAT5-Luc cell lines with stable incorporation of a human PRLR expression cassette and the STAT5-dependent luciferase reporter were generated via sequential rounds of Lipofectamine® 2000-mediated transfection (LifeTechnologies, Carlsbad, Calif.). Cells were selected for at least two weeks in the presence of 500 μg/mL G418 (hPRLR) and 100 μg/mL hygromycin B (STAT5-Luc). The STAT5-Luc assay utilized 2×10^5 HEK293/hPRLR/STAT5-Luc cells seeded in complete growth medium on PDL-coated 96 well plates grown overnight at 37° C., 5% CO2. To generate antibody inhibition curves, cells were incubated (6 hr at 37° C.) with serially diluted anti-human PRLR antibodies (100 nM to 24 pM) in the presence of 5 nM constant PRL before recording signal. PRL dose response curves were generated by the addition of serially diluted PRL (100 nM to 24 pM) to cells and recording signal after a 6 hr (37° C.) incubation in the absence of antibodies. The ability of the antibodies to activate PRLR in the absence of ligand was also assessed.
Luciferase activity was measured with ONE-GLO™ reagent (Promega, Madison, Wis.). Relative light units (RLUs) were measured on a Victor luminometer (Perkin Elmer, Shelton, Conn.). EC50/IC50 values were determined from a four-parameter logistic equation over an 8-point response curve using GraphPad Prism. Percent blocking and percent activation are reported for the highest antibody dose.

[6] = biological target: T2, T47D (native PRLR expressing cell line); experiment: FACS cell surface binding
Experimental: (§2) The ability of anti-PRLR antibodies to selectively bind PRLR expressing cell lines was next determined. Human, monkey macaca fascicularis, and mouse PRLR constructs with an HA tag were stably introduced into HEK293 cells via Lipofectamine 2000-mediated transfection methodology. Transfectants (HEK293/hPRLR, HEK293/mfPRLR and HEK293/mPRLR) were selected for at least 2 weeks in complete growth media plus G418.
(§3) Cell surface expression of PRLR on 293/hPRLR cells was assessed via FACS analysis. Briefly, 1×10^5 cells were incubated with 10 μg/ml of Control antibody I, or an isotype control for 30 min on ice in antibody dilution buffer. Following two washes with antibody dilution buffer, cells were incubated with 10 μg/ml of PE conjugated anti-human secondary antibodies for 30 min on ice. Following two additional washes, samples were run on a Hypercyt® cytometer and analyzed in FORECYT™ (IntelliCyt, Albuquerque, N. Mex.). The mean fluorescence intensities (MFI) were expressed as fold change above isotype control levels (background). FACS binding confirmed that Control I selectively bound to 293/hPRLR expressing cells with MFIs that were 30 fold above background (isotype ctrl) levels and less than 2 fold binding on parental cells.
(§4) Next, the anti-PRLR antibodies of the present invention were tested via FACS for selective binding to the engineered overexpressing PRLR HEK293 cell lines, as well as to non-expressing HEK293 cells and a native PRLR expressing cell line (T47D).

HEK293/hPRLR = biological target: T3, HEK293/hPRLR; experiment: FACS cell surface binding
Experimental: as §2, §3, §4

HEK293/mPRLR = biological target: T4, HEK293/mPRLR; experiment: FACS cell surface binding
Experimental: as §2, §3, §4

[7] = test system: HEK293 (non-expressing parental cells); experiment: FACS cell surface binding
Experimental: as §2, §3, §4

HEK293/mfPRLR = experiment: FACS cell surface binding; parameters: species or system macaca fascicularis
Experimental: as §2
as §3, with “cells. […]” for “cells.”

T5 sequence (P16471 with tags, fused parts or gaps): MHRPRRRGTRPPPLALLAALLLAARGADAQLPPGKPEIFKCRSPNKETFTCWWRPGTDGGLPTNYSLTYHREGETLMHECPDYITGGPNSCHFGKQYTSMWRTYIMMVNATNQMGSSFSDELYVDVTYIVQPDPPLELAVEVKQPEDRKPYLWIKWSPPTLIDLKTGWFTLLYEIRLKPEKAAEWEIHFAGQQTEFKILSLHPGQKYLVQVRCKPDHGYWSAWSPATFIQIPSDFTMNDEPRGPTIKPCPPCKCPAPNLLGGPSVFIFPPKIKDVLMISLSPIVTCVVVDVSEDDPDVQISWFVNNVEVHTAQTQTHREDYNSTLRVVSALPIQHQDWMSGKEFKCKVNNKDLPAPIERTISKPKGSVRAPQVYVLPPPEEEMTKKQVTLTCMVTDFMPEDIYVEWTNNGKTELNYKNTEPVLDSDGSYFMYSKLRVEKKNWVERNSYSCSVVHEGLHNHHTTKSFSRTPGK
T6 sequence (P16471 with tags, fused parts or gaps): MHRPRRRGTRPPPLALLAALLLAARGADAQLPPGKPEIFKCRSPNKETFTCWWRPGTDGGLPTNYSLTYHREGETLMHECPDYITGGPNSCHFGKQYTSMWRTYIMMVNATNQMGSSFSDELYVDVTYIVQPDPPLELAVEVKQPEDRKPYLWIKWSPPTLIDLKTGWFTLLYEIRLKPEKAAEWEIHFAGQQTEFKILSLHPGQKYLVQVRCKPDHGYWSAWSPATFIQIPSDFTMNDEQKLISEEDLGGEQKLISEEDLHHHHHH

Row | Kd ([1]; 25° C.) | Kd ([1]; 37° C.) | Kd ([2]; 25° C.) | T½ ([2]; 25° C.) | Kd ([2]; 37° C.) | T½ ([2]; 37° C.) | Kd ([3]; 25° C.) | T½ ([3]; 25° C.) | Kd ([3]; 37° C.) | T½ ([3]; 37° C.) | % Internalization relative to Control I [4] | % Total Binding relative to Control I [4] | FACS Cell Binding (Fold Above Background) [6] | FACS Cell Binding (Fold Above Background) (HEK293/hPRLR) | FACS Cell Binding (Fold Above Background) (HEK293/mPRLR) | Molecule | T½ ([1]; 25° C.) | T½ ([1]; 37° C.) | Percent Blocking at 100 nM Antibody [5] | FACS Cell Binding (Fold Above Background) [7] | FACS Cell Binding (Fold Above Background) (HEK293/mfPRLR) | further results
1 | 0.346 nM | 0.448 nM | 0.0803 nM | 212 min | 0.09 nM | 105 min | 0.189 nM | 80 min | 0.31 nM | 34 min | 147.0% | 152.7% | 34 Fold Above Background | 32 Fold Above Background | 2 Fold Above Background | H1H6807P: anti-PRLR antibody, human IgG1 Fc; HCVR/LCVR SEQ ID NOs 258/266 (antibody, V domains shown, human IgG1 Fc) VH: QVQLVESGGGVVQPGRSLRLSCAASGFTFSDYNMHWVRQAPGKGLEWVAVIWYDGSNKHYADSVKGRFTISRDNSKNTLYLQMNSLRAEDTAVYYCARDGFTIFGMVLDYWGQGTLVTVSS VL: [skipping about 100 residues]PFTFGPGTKVDIK | 76 min | 32 min | 100% | 2 Fold Above Background | 27 Fold Above Background | IC50 ([5]; 5 nM constant PRL, 6 hr at 37° C.): 0.6 nM
2 | 1.81 nM | 4.74 nM | 0.332 nM | 132 min | 0.282 nM | 83 min | 1.43 nM | 28 min | 3.91 nM | 7 min | 160.7% | 165.8% | 38 Fold Above Background | 37 Fold Above Background | 1 Fold Above Background | H1H6783P: anti-PRLR antibody, human IgG1 Fc; HCVR/LCVR SEQ ID NOs 82/90 (antibody, V domains shown, human IgG1 Fc) VH: QVQLQQSGPGLVKPSQTLSLTCAISGDSVSSNTFAWNWIRQSPSRGLEWLGRTYYRSKWYIDYAESVKSRITITPDTSKNQFSLQLNSVTPEDTALYYCAGGYTYAPRGAFDIWGQGTMVTVSS VL: [skipping about 100 residues]TFGQGTKLEIK | 34 min | 9 min | 59% | 1 Fold Above Background | 27 Fold Above Background | –
